# Measured values published in the supplement of paper PMC11417369.
# ± gives the standard deviation of the averaged measurements. This is one part of the list.
# System: PfAP2-EXP AP2 domain (GST-tagged)
# Test: gcPBM binding intensity (ln(normalized median fluorescence intensity)); higher = stronger DNA binding
# How it was run: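 DNA-binding domains from P. falciparum, fused to GST and produced in E. coli, were put on an Agilent 4 × 180k double-stranded probe array for 1 h in 1× PBS holding 1% milk, 0.2 mg/ml BSA, 0.5% salmon testes DNA and 0.03% Triton X-100. Probes were primer-extended, 36 bp long and drawn from intergenic genomic regions, with negative controls included. After Alexa488 anti-GST antibody detection and a 488 nm scan, binding intensity was set as the highest Masliner-normalised natural-log median intensity across replicate spots of either probe orientation.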
row,Sequence,gcPBM binding intensity (ln)
1,TTTCAAAATTTTTATTTTAAATAAACATTTATAAAA [CACACA_negctrl_site1588],7.9 ± 0.37
2,ATTTATTTATTTATATGTACTTAAATGAAAGGAATA [XGTACX_site6024],8.52 ± 0.24
3,AATATTATATGGACGTGTCCACATAAACCTATATAT [XGTACX_site2053],8.51 ± 0.39
4,ATATAAAAAAATTGCACACATAAATATATACATATA [CACACA_site1218],8.3 ± 0.37
5,TTTATGTACAGACATATACACACCTCTATAATATAT [CACACA_site730],8.78 ± 0.35
6,TCACAAAAAGAACATTGATATTATTATAAAATCGTC [GTGCAC_negctrl_site177],8.34 ± 0.38
7,GATACATAGAAACACACACACATACATATATACATA [CACACA_site3438],8.68 ± 0.51
8,TATTGTAATATTATATATATCTATTATGTATATAAA [CACACA_negctrl_site454],8.12 ± 0.35
9,AATTATATATTAAAAAGTACAAGTTAATATAATATA [XGTACX_site2737],8.62 ± 0.42
10,ATTAATAATCGAAAGGTGCACTTTGATTTGATAACA,10.2 ± 1.7
11,TTATTATTTTATCGTAGTACACCTAAATTATAAAAC [XGTACX_site5251],8.56 ± 0.32
12,TAATTAAAATTATTTATAAATTAGTATATTTCTATA [CACACA_negctrl_site663],7.94 ± 0.28
13,TTACAAAAATTTTGTTCACACATAAAAATATGTTAC [CACACA_site5740],8.31 ± 0.4
14,TAATAAATTATTTTTTATTATTTTAATAACACTTCA [CACACA_negctrl_site3],7.95 ± 0.28
15,ATATATTTTTCAAAATGTACAAATAATTAAATACCA [XGTACX_site875],8.45 ± 0.31
16,TGGTATTTTGATGATAAAAGGAAATTTTTTTTATAC [XGTACX_negctrl_site111],8.27 ± 0.32
17,GTTAGCATATTAAGTTGTACACAATTATTCTTCAAT [XGTACX_site8324],8.68 ± 0.34
18,AACAAAGAAAATACATGTACAAAAAATATTAACGAA [XGTACX_site287],9.2 ± 0.42
19,AATATAATATAATGCACACATAAACAAAAAAAAAAA [CACACA_site783],8.62 ± 0.33
20,ATTTATGAAAGAAATAGTACACACATAAACATTTGT [XGTACX_site5862],8.7 ± 0.47
21,TATATAAAATATTAATGTACATATAAATATATATAT [XGTACX_site6656],9.34 ± 0.26
22,GTAATTAAAATATATACACACAAAGGCTATTAAATA [CACACA_site1011],8.54 ± 0.36

row,Sequence,gcPBM binding intensity (ln)
1,TTTAATACGAATGAGGCACACACCTAGTATACATGC [CACACA_site621],8.75 ± 0.4
2,CAAAATAATATATATACACACACACCGATATATATA [CACACA_site8082],8.71 ± 0.52
3,TTTAATTTTTTTAAAACACACAAATATATATATATA [CACACA_site3898],10.06 ± 0.085
4,TTATTTTTGTGTAAGGTGCTATATATAATGTTTTTA,8.68 ± 0.38
5,AAAAAGGATAAACACACACACACACCGATATATATA [CACACA_site8206],8.86 ± 0.61
6,AACGAAATCATCAAGTGTACTAGTTTATTATTAATA [XGTACX_site6161],8.38 ± 0.42
7,AAATGTGATATAAGTACACACACATATGTATATATA [CACACA_site8539],8.62 ± 0.35
8,TATGTATATTATATGACACACATTTATATATATATA [CACACA_site1167],9.8 ± 0.27
9,TTTTGTTGATTTATATCTGTAGGGTTTAATATAACA [XGTACX_negctrl_site174],8.29 ± 0.47
10,AATAAATAAATAAATATATATATATATATATATATG [CACACA_negctrl_site899],8.655 ± 0.064
11,AAAATAAAATAAAACACAAAAAAATAAAACAAAATA [CACACA_negctrl_site16],8.71 ± 0.47
12,AAATAAAATATATACATATATATATTATTTAGTAAT [XGTACX_negctrl_site375],8.05 ± 0.45
13,AAATATGTTTATATATGTACTTATAATTCAAAATAT [XGTACX_site2167],8.11 ± 0.23
14,TATATATCCATGTGTACACACAAAAAAAAATAAAGT [CACACA_site7107],9.02 ± 0.38
15,TCTATGCGTTTTAATAGTACATATAAAATTTATACA [XGTACX_site6986],8.47 ± 0.3
16,TAATTAACAAACTATAGTACACAAAATACTTCATAT [XGTACX_site6375],8.66 ± 0.34
17,ATATACACACATAAGTGTACTTATATTTCATATATA [XGTACX_site8646],8.39 ± 0.35
18,CCATGTCACAATTTTTCACACACAAAATTTATATAC [CACACA_site8628],8.82 ± 0.42
19,TTAACTATGAATACATGTACATGAAAATATTTCAAT [XGTACX_site1069],8.89 ± 0.22
20,AAATTAATAAAAAATGGTACACAAAATGGATGTATA [XGTACX_site1561],8.76 ± 0.36
21,AAAATTAAACAAAGTTGTACAAAATAATAATAAAAG [XGTACX_site7515],8.95 ± 0.34
22,GGCAAATTTATTATACCCACATACATACATACATAC [XGTACX_negctrl_site186],9.42 ± 0.042
